The values that follow come from ChEMBL document CHEMBL4888484, “Replenishing the malaria drug discovery pipeline: Screening and hit evaluation of the MMV Hit Generation Library 1 (HGL1) against asexual blood stage Plasmodium falciparum ,using a nano luciferase reporter read-out” (2022).

Out of some 150,000 compounds screened, about 540 (0.36%) showed an effect of 50% or more. The list shows a part of the results.

The test relates to Plasmodium falciparum. Put plainly: Primary screen in NF54 nanoGlo assay, in single point, at 2uM, 72h; a lower Z score goes with more inhibition. It counts as functional, Erythrocyte. To be noted: timepoint 72 hour.
Take `O=C([C@H]1CCCO1)N1CCC(N(C(=O)[C@H]2CCCO2)C2CC2)C1` (stereo partly drawn): the % Inhibition – broadly, the change of the read-out against control, counted positive when it falls – is listed as -4% and the Z score came to 0.73.
The matching figures for `O=C1NC[C@@H](C(=O)NCCS(=O)(=O)c2ccccc2F)O1`: -3% and 0.39.
`CC[C@H](NC(=O)c1ccccc1-c1ccccc1)c1ccccn1`: the “% Inhibition” value was found to be 9% and the Z score is listed as -0.86.
For `CN1CCN(c2ncnc(-c3ccccc3F)c2N)CC1` the same measures were -13% and 1.79.
`CCc1cnccc1C(=O)OCCc1cn[nH]c1`: the “% Inhibition” value is recorded as -4% and the Z score was determined as 0.7.
As to `Cc1ccc([C@@H](N)CC(F)(F)F)cc1`, the “% Inhibition” value turned out to be 4% and the Z score is -0.65.
As to `COc1ccc(C2=NC3(CCCCC3)N(C(=O)c3ccc(C)cc3)C2=O)cc1`, the “% Inhibition” value was -7% and the Z score was found to be 0.65.
For the compound `Cn1cc(CCNC(=O)[C@]2(O)CCOC2)c2ccc(Cl)cc21`, the “% Inhibition” value is -1% and the Z score was 0.23.
In the case of `CN(C(=O)OC(C)(C)C)C1CCN(C(=O)C2CC2(Cl)Cl)C1` (stereo not drawn), the “% Inhibition” value worked out at 0% and the Z score came out at 0.
As to `COc1ccc(C(=O)Nc2ccc(-c3c(-c4ccc(N(C)C)cc4)nn(-c4cccc(F)c4)c3OC(C)=O)cc2)cc1`, the “% Inhibition” value is given as -1% and the Z score amounted to 0.11.
Take `Cc1cccn(CC(=O)Nc2ccc3c(c2)CCC3)c1=O`: the “% Inhibition” value is -2% and the Z score came to 0.41.
On to `O=C(c1cnn2cc(CCO)cnc12)N1CCC[C@H](c2nccn2CC2CC2)C1`, for which the “% Inhibition” value is recorded as -10% and the Z score amounted to 1.85.
`COCCN1CCC[C@@](O)(CN2CCc3[nH]c4ccccc4c3C2)C1=O`: the “% Inhibition” value was -7% and the Z score is reported as 1.02.
For the compound `COC(=O)C(C)(C)CNCc1ccc(C)cn1`, the “% Inhibition” value was -4% and the Z score worked out at 0.67.
The matching figures for `Cn1c(C(=O)NCCN2CCC[C@H](C(N)=O)C2)cc2ccc(Cl)cc21`: -1% and 0.11.
As for `CC(C)c1ccc(NC(=O)C2CCN(C(=O)c3ccc(-c4ccccc4)cc3)CC2)cc1`, the “% Inhibition” value is given as 4% and the Z score is on record as -0.46.
For `COc1cccc2c1OC[C@@H](C(=O)N(C)Cc1nccs1)C2` the same measures were -6% and 0.78.
Take `CN1CC(=O)N(c2cccc(NS(=O)(=O)NCc3ccccc3)c2)C1=O`: the “% Inhibition” value was determined as 1% and the Z score is given as -0.1.
Turning to `O=C(Cn1ccc(C(F)(F)F)cc1=O)NC[C@H]1CCCO1`, the “% Inhibition” value was 4% and the Z score is given as -0.84.
As for `c1ccc(CCNc2nc(-c3ccccn3)cs2)cc1`, the “% Inhibition” value was found to be 34% and the Z score is given as -3.36.
Regarding `CC(C)(Cc1cccc(Cl)c1)C(=O)NCc1nnnn1C1CC1`, the “% Inhibition” value was -6% and the Z score was 0.48.
As for `O=C(Nc1ccc(-c2nnc[nH]2)cc1)[C@@H]1CCCc2ccccc21`, the “% Inhibition” value is given as 34% and the Z score is reported as -3.86.
In the case of `CN1CC[C@@]2(CCC1=O)CN(C(=O)CCc1ccc3c(c1)OCO3)CCN2C`, the “% Inhibition” value worked out at 6% and the Z score is -1.02.
Consider `O=C(Cn1cc(S(=O)(=O)N2CCCCCC2)ccc1=O)Nc1cc(F)ccc1F`, for which the “% Inhibition” value is recorded as -1% and the Z score is given as 0.28.
Turning to `Cc1cccc(C(=O)Nc2cc(C(=O)O)ccc2N2CCC(N3CCCCC3)CC2)c1`, the “% Inhibition” value is given as -11% and the Z score was 1.67.
Regarding `COc1ccc(CCC(=O)O[C@@H](Cn2cncn2)c2ccc(Cl)cc2)cc1`, the “% Inhibition” value is -6% and the Z score turned out to be 0.76.
For the compound `CCN(CC(C)(C)O)S(=O)(=O)N1CC(C)CC(C)C1` (stereo not drawn), the “% Inhibition” value is given as -5% and the Z score was 0.79.
As to `CCOc1cc(N2CCOCC2)c(OCC)cc1NC(=O)c1csc2c1CCCC2`, the “% Inhibition” value is recorded as -1% and the Z score is reported as 0.19.
For the compound `Cc1ccc(-c2nc(Cn3nc(C)c(C)c(C#N)c3=O)co2)c(C)c1`, the “% Inhibition” value is recorded as -2% and the Z score worked out at 0.23.
For `O=C(N[C@H]1CCCCNC1=O)c1n[nH]c2c1CCCC2`, the “% Inhibition” value was -9% and the Z score was determined as 1.5.
For `CCN1C(=O)C(c2ccc(O)c(C)c2)(c2ccc(O)c(C)c2)c2cc(Br)ccc21`, the “% Inhibition” value amounted to 25% and the Z score was -3.47.
For `NC(=O)c1ccc(-c2nc3c([nH]2)CCN(C(=O)CN2CCOC2=O)C3)cc1` the same measures were 3% and -0.51.
As to `O=C(c1cc(-n2ccnc2)ccn1)N1CC(S(=O)(=O)Nc2ccccc2)C1`, the “% Inhibition” value is -10% and the Z score was determined as 1.29.
For `O=C(NCC1CCCCC1)c1ccco1`, the “% Inhibition” value was determined as 4% and the Z score was -0.57.
Consider `Cc1cc(C)c(NC(=O)c2cnc(-c3ccccc3)nc2C)c(C)c1`, for which the “% Inhibition” value is -12% and the Z score was found to be 1.25.
In the case of `CN(C(=O)Cn1cc(C(=O)O)cn1)C1CCCCC1c1ccccc1` (stereo not drawn), the “% Inhibition” value is recorded as 1% and the Z score is -0.14.
In the case of `COc1c(C)cc(C)cc1CN1CC[C@H]1C(=O)O`, the “% Inhibition” value is -24% and the Z score was determined as 2.29.
As for `CN1C[C@@H]2CC[C@H]1CN(C(=O)Nc1ccc(F)c(Cl)c1)C2`, the “% Inhibition” value worked out at 3% and the Z score is listed as -0.41.
With `Cc1nc(C)n(CC2CN(C(=O)C3CCCN(C(=O)C(C)C)C3)CCO2)n1` (stereo not drawn), the “% Inhibition” value is -6% and the Z score was determined as 0.68.
Turning to `Cc1nc(C(C)C)ccc1C(=O)N(C)CC1(CO)CC1`, the “% Inhibition” value was -14% and the Z score came out at 1.83.
For `Cc1cc(-c2nc([C@@H]3CCCc4ccccc43)no2)n[nH]1`, the “% Inhibition” value is recorded as -3% and the Z score worked out at 0.41.
As to `CC(NC(=O)C(C)N1CCC(OCCN2CCOCC2)CC1)c1ccc(F)cc1` (stereo not drawn), the “% Inhibition” value is reported as -9% and the Z score came to 1.1.
Take `Cc1ccccc1-c1noc2ncnc(NCc3ccc4c(c3)OCO4)c12`: the “% Inhibition” value is 1% and the Z score was -0.13.
For `Cc1nc2cnccn2c1NCCC(=O)N1CCCCCC1`, the “% Inhibition” value is -17% and the Z score is listed as 2.41.
For `CCO[C@H](C(=O)Nc1nccnc1C1CC1)C1CCCC1` the same measures were -1% and 0.08.
As for `O=C(Nc1ccc(Cl)cc1)c1cc(CN2CCCC2)on1`, the “% Inhibition” value was -10% and the Z score is given as 1.05.
Regarding `O=C(NCc1ccccn1)[C@@H]1CCCO1`, the “% Inhibition” value is -5% and the Z score came out at 0.79.
Turning to `Cc1nc(N(C)CC2(CO)CCOCC2)cc([C@H]2C[C@@H](O)C2)n1`, the “% Inhibition” value is listed as -6% and the Z score came to 1.02.
With `C[C@](O)(CNS(=O)(=O)CCC(F)(F)F)c1cc2ccccc2o1`, the “% Inhibition” value was -7% and the Z score was found to be 0.87.
As to `Cn1nccc1-c1ccnc2nc(C3CCC3)nn12`, the “% Inhibition” value is -3% and the Z score is on record as 0.41.
Consider `COCC[C@@H](CN(C)C1CCC1)NC(=O)OC(C)(C)C`, for which the “% Inhibition” value was -3% and the Z score was 0.45.
On to `CN(Cc1csc(CNC(=O)c2ccccc2)n1)C1(CO)CCOCC1`, for which the “% Inhibition” value was -13% and the Z score is listed as 1.99.
As for `Cc1ncc(C)c(N2CCCC3(CCOCC3)C2)n1`, the “% Inhibition” value is -4% and the Z score amounted to 0.61.
With `C=CCn1cc([C@@H]2C[C@H](NC(=O)c3ccccc3)C[C@H](CC)O2)c(C)n1`, the “% Inhibition” value is -11% and the Z score is given as 1.29.
